Among all 310,000 compounds or so, about 2,200 (0.71%) showed an effect of 50% or more. The effect is printed as a negative number. The list shows a part of the results.
molecular target: human ether-à-go-go-related gene (hERG) potassium channel (human, UniProt Q12809); test: primary screen, population patch clamp on CHO cells stably expressing hERG
Sequence (Q12809 whole entry, looked up): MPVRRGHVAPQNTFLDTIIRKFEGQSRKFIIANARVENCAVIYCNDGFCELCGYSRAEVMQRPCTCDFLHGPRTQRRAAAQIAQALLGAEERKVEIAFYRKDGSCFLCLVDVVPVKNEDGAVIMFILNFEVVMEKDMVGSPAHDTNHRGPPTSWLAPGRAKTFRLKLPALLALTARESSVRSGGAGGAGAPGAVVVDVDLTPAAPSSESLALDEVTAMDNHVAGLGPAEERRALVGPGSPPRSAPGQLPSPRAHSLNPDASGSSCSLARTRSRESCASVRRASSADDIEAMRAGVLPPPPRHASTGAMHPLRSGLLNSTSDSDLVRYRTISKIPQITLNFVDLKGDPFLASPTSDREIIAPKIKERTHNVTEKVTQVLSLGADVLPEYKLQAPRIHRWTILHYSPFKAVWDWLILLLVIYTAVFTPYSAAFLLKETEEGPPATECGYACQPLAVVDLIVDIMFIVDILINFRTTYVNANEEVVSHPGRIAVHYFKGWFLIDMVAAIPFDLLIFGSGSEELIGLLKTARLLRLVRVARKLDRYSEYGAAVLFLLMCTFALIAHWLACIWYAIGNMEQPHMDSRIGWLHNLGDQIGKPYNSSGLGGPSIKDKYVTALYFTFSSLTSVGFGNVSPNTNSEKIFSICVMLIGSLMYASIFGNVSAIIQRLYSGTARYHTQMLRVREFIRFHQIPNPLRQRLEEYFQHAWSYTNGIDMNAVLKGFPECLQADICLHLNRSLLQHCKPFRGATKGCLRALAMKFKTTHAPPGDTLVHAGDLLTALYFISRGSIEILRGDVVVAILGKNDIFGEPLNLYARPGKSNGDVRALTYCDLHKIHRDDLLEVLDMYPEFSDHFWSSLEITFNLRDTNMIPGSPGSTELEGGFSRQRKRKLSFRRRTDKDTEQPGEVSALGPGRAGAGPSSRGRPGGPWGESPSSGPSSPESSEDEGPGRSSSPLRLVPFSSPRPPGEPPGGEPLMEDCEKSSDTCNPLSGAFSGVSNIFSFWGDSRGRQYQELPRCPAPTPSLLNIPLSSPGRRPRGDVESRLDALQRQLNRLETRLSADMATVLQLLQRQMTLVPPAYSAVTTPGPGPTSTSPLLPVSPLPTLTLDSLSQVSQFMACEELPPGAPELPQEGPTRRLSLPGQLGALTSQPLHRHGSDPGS

In order of falling “hERG current change (%, negative = inhibition) at 1uM” value:
1. Cc1ccc(S(=O)(=O)N(C)C(C)CCc2ccco2)cc1 (centres unmarked)  21.6%
2. Cc1ccc(NC(=O)COC(=O)c2ccc(S(=O)(=O)N3CCCCC3)cc2)cc1  19.4%
3. COC(=O)c1cc(S(=O)(=O)N2CCC(C)CC2)cn1C  18.2%
4. CCCn1c(SCC(=O)c2cc(C)c(C)cc2C)n[nH]c1=O  18.2%
5. Cc1cc(NS(=O)(=O)c2ccc(NC(=O)COc3ccccc3C(C)C)cc2)no1  18%
6. Cc1onc(-c2ccccc2Cl)c1C(=O)N1CCN(C)CC1  16.9%
7. C=CCn1c(C(C)NC(=O)c2cccc(C)c2)n[nH]c1=S (centres unmarked)  16.5%
8. CCCNC(=S)N1CCN(C)CC1.O=C(O)C(=O)O  16.4%
9. O=C(CCCOc1ccccc1)Nc1ccc2c(c1)OCCO2  16.3%
10. O=C(COC(=O)Cc1ccsc1)Nc1ccc(Cl)cn1  16%
11. COc1ccc(S(=O)(=O)N2CCCC(C(=O)NCCc3ccccc3)C2)cc1 (centres unmarked)  15.8%
12. CC(=O)NC(=S)Nc1ccc(NC(=S)NC(=O)c2cccs2)cc1  15.5%
13. Cc1ccc(NC(=O)CSc2nnc(-c3n[nH]c4ccccc34)n2-c2ccccc2)c(C)c1  15.3%
14. Cc1cc(=O)[nH]c(-c2ccccc2)n1  15.1%
15. CC1CC(C)CN(S(=O)(=O)N2CCCC(C(=O)NC3CCCCC3)C2)C1 (centres unmarked)  14.7%
16. COc1ccccc1N1C[C@@H]2C[C@@H](c3ccco3)N3CCC[C@@]23C1=O  14.7%
17. CCCCCN(C(=O)COC(=O)Cc1c(C)nc2ccccc2c1C)c1c(N)n(CCCC)c(=O)[nH]c1=O  14.5%
18. Cc1cc(NCC(C)C)n2ncnc2n1  14.4%
19. COc1cc(/C=N/Nc2ccc(C)cc2)cc(Br)c1O.Cl  14.1%
20. Cc1cc(/C=N/n2cnnc2)c(C)n1-c1ccc(OCc2ccccc2F)cc1  14.1%
21. Nn1c(SCC(=O)Nc2ccc(S(=O)(=O)N3CCCC3)cc2)nnc1C(F)(F)F  14%
22. CCOC(=O)COc1ccccc1C(=O)c1cnn(-c2ccccc2)c1  14%
23. Cc1cccc(OCc2nnc(SCC(=O)Nc3sc(C)c(C)c3C#N)n2C)c1  14%
24. CCC1(C)OC(=O)NN(c2ccc(C)cc2)C1(C)O (centres unmarked)  13.6%
25. COc1cccc(OCCCn2ccnc2)c1.Cl  13.4%
26. O=C(COC(=O)Cc1ccsc1)NCc1ccc(Cl)cc1  13.1%
27. CSc1scc2c1-c1nc(SCC(=O)C(C)(C)C)ncc1CC2  12.9%
28. CCOc1ccc(S(=O)(=O)NC(C)C(=O)NCc2ccncc2)cc1 (centres unmarked)  12.8%
29. O=C(COc1cccc2ccccc12)N/N=C/c1ccco1  12.8%
30. CCOC(=O)C(C(=O)OCC)C(=O)c1cc(OC)c(OC)c(OC)c1  12.6%
31. CSCCC(NS(=O)(=O)c1ccc2c(c1)oc(=O)n2C)C(=O)NC1CCN(Cc2ccccc2)CC1 (centres unmarked)  12.3%
32. CC1CCCC(C)N1C(=O)c1ccc(S(=O)(=O)NCc2ccco2)cc1 (centres unmarked)  12%
33. O=C(Nc1cccc(-c2ccccc2)c1)N1CCN(C(=O)Nc2cccc(-c3ccccc3)c2)CC1  11.8%
34. CCC(=O)NC(=S)Nc1cccc(NC(=O)CC)c1  11.7%
35. CCc1ccc(-c2nnn(CCC#N)n2)cc1  11.3%
36. Cc1cc(N/C=C2\CCCCC2=O)no1  11.3%
37. FC(F)(F)c1cnc(Nc2ccc(N3CCOCC3)cc2)c(Cl)c1  11.1%
38. Cc1ccc(CN(Cc2ccco2)S(=O)(=O)c2ccc(S(=O)(=O)NCC3CCCO3)cc2)cc1 (centres unmarked)  11.1%
39. CCOC(=O)c1cc(-c2ccc(Cl)cc2)nc2c1c(C)nn2CCC#N  10.9%
40. O=C(NNC(=O)C1CCN(Cc2cccc(F)c2)CC1)c1cccc(Cl)c1  10.6%
41. COc1ccc(CNC(=O)C(Cc2ccccc2)n2cccc2)cc1 (centres unmarked)  10.4%
42. CCc1ccccc1NC(=O)C(Cc1ccccc1)c1nn[nH]n1 (centres unmarked)  10.2%
43. NC(=O)CSc1nnc(-c2ccoc2)o1  9.9%
44. COC(=O)c1cnc(Nc2ccc(Cl)cc2)c([N+](=O)[O-])c1  9.69%
45. CC1CC(C)CN(c2ccc(C(=O)NCc3ccc4c(c3)OCO4)cc2[N+](=O)[O-])C1 (centres unmarked)  9.68%
46. Nc1c(Cl)cnc(C(Cl)(Cl)Cl)c1Cl  9.65%
47. O=S(=O)(Nc1ccc(N2CCCCC2)cc1)c1cccs1  9.38%
48. CCC(=O)Nc1ccc2c(c1)C(=O)N(C1CCCCC1)C2=O  9.33%
49. COC(=O)c1sccc1NC(=O)COc1cccc(C)c1  9.28%
50. COCCn1c(C)cc(C(=O)CSc2nncn2-c2ccccc2)c1C  8.85%
51. Cc1onc(-c2ccccc2Cl)c1C(=O)NCCCc1ccccc1  8.84%
52. Cc1ccc(N2C(=O)[C@@H]3[C@H](C2=O)C2c4ccccc4C=NN2[C@@H]3C(=O)c2ccc(Cl)cc2)cc1 (some centres unmarked)  8.4%
53. Cc1ccc(-c2nn(CCC(=O)NCC3CCCO3)c(=O)c3ccccc23)cc1 (centres unmarked)  8.25%
54. Cc1csc(SCC(=O)NC(=O)c2ccccc2)n1  8.15%
55. CCC12CN3CC(CC)(CN(C1)C3c1ccc(OC(C)C)cc1)C2=O (centres unmarked)  7.91%
56. Cc1csc(NC(=O)c2ccc(OCC3CCCO3)cc2)n1 (centres unmarked)  7.76%
57. CC(=O)c1ccc(N2CCN(c3ccc4cc(S(=O)(=O)N5CCC(C)CC5)ccc4n3)CC2)cc1  7.63%
58. CCN1CCN(C(=O)N(c2ccccc2)c2ccccc2)CC1  7.3%
59. Cc1ccc(Sc2sc(=O)n(C)c2S(=O)(=O)c2ccc(C)cc2)cc1  5.93%
60. C/C(=N\NC(=O)c1cccc([N+](=O)[O-])c1)c1ccco1  5.62%
61. O=C(Nc1ccc2c(c1)oc1ccccc12)c1ccncc1  5.44%
62. C=CCN(c1ccc(C(=O)Nc2ccc(C)c(C)c2)cc1)S(C)(=O)=O  5.22%
63. O=C(c1ccccn1)N(Cc1cc2ccccc2[nH]c1=O)C1CCCCC1  5.11%
64. O=C(C1COc2ccccc2O1)N1CCN(c2nc3c(F)cc(F)cc3s2)CC1 (centres unmarked)  4.54%
65. COc1ccc(CNC(=O)c2ccc3oc(C(C)C)nc3c2)cc1  4.38%
66. O=C1Nc2ccccc2C1=Nc1ccc(-c2nnc3n2CCCCC3)cc1  4.35%
67. CC(=O)Nc1cc[n+](CC(=O)c2cccc([N+](=O)[O-])c2)cc1.[Cl-]  4.12%
68. O=C1CC(c2ccccc2)CC(O)=C1C=Nc1ccc(O)cc1 (centres unmarked)  3.14%
69. Cc1oc(-c2cccc(Cl)c2)nc1CN1CCC(C(=O)N2CCN(c3ccccc3F)CC2)CC1  1.87%
70. CC(=O)N1CCOc2ccc(S(=O)(=O)NCc3ccccc3Cl)cc21  1.09%
71. Cc1nn(-c2ccccc2)c(Cl)c1/C=C/C(=O)c1ccccc1  0.915%
72. CC(C)[C@H](NC(=O)[C@@H]1Cc2ccccc2CN1C(=O)OC(C)(C)C)C(=O)NCC1CCCO1 (some centres unmarked)  0.821%
73. Cc1cc(C)cc(NC(=O)C2CCCN2C(=O)Oc2ccccc2)c1 (centres unmarked)  -0.455%
74. O=C(CCC(=O)N1CCOc2ccccc21)NCCCc1ccccc1  -0.507%
75. Cc1ccc2nc(SCC(=O)Nc3cc(C(C)(C)C)nn3-c3ccccc3)[nH]c2c1  -0.742%
76. C=CCn1c(O)c(C=Nc2ccc(N(CC)CC)cc2)c(=O)[nH]c1=O  -1.24%
77. O=C(Nc1ccccc1)N1CCCC2CCCCC21 (centres unmarked)  -1.96%
78. O=C(OCC(=O)N1CCCc2ccccc21)c1ccccc1[N+](=O)[O-]  -2.07%
79. CCOC(=O)C1(CCOc2ccccc2)CCN(Cc2ccc(O)c(Cl)c2)CC1  -2.25%
80. CC(=O)/C(=N\Nc1ccccc1Cl)Sc1cccc2cccnc12  -2.76%
81. COc1ccc(N2CC(C(=O)NCCCN3CCOCC3)CC2=O)cc1 (centres unmarked)  -3.65%
82. Cc1ccc(-c2nc3n(n2)Cc2ccccc2-3)cc1  -3.84%
83. O=C1CC(C(=O)N2CCCc3ccccc32)CN1c1ccc(Cl)cc1 (centres unmarked)  -4.4%
84. Cc1cccc(N2CCN(CC(=O)Nc3ccc(S(=O)(=O)N4CCOCC4)cc3)CC2)c1C  -5.45%
85. O=C(C1=C[C@@H](c2ccc3c(c2)OCO3)C[C@@H](OCCCCO)O1)N1CCN(Cc2ccc3c(c2)OCO3)CC1  -6.18%
86. O=C(CCC1CCCN(C(=O)CCCc2ccccc2)C1)N1CCN(c2ccccn2)CC1 (centres unmarked)  -6.61%
87. COc1ccccc1N1CCN(CCC(=O)Nc2cccc(Cl)c2)CC1.Cl  -20.9%
88. Cc1ccc(C)n1-c1ccc(C(=O)NC2CCN(Cc3ccccc3)CC2)cc1  -32.5%
89. CC1CCN(CCCCOc2ccc(C(=O)c3ccccc3)cc2)CC1.O=C(O)C(=O)O  -72.4%
